Out of some 360,000 compounds screened, about 25,000 (6.9%) were called active. The shares of active, inactive and inconclusive entries below differ from those in the screen. Calls come from the whole dose curve; as a rule, active = well fitted inhibition curve with a large enough effect; inconclusive = small, poorly fitted or top-dose-only effect; inactive = flat fitted curve, though single readings scatter. Potencies of inconclusive entries are doubtful fits and often do not repeat.
What follows are molecules tested against Luciferin 4-monooxygenase (Photinus pyralis) (UniProt P08659) (assay: qHTS profiling assay for firefly luciferase inhibitor/activator using purifed enzyme and Km concentrations of substrates (counterscreen for miR-21 project)). Conditions: purified FLuc, luminescence inhibition; series mostly up to 57.5 µM.
UniProt P08659, sequence (P08659 whole entry, looked up): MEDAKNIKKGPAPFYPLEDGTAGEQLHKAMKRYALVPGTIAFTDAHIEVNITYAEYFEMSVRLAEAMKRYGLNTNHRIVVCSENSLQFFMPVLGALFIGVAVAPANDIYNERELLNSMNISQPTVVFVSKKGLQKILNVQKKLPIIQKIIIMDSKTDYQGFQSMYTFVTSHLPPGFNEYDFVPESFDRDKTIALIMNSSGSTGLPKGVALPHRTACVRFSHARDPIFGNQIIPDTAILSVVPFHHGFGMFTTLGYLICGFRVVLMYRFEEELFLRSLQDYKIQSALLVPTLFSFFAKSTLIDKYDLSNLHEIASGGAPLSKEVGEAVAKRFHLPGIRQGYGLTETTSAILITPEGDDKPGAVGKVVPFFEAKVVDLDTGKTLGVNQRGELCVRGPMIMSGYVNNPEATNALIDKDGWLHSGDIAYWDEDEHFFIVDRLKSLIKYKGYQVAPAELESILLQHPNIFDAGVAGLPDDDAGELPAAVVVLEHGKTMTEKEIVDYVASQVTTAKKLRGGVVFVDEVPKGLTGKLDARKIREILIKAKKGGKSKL
Outline: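 Purified P. pyralis luciferase (10nM final) with 10uM D-luciferin and 10uM ATP (Km levels) in 50mM Tris acetate pH 7.5, 10mM Mg acetate, 0.01% Tween-20, 0.05% BSA; qHTS 6-point titration, ~60 µM downward; luminescence read.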
In the case of `O=C(NNC(=S)Nc1cccc(Cl)c1)c1ccccc1`, the Potency was inconclusive: 16.9 µM [inhibitor, partial curve]. In the case of `CCOC(=S)NC(=O)c1sc2ccccc2c1Cl`, the Potency was inconclusive: 37.9 µM [inhibitor, single point]. `CC1CCCN(C(=O)c2ccc(COc3ccccc3Br)cc2)C1` (stereo unspecified) was tested, and the Potency was inconclusive: 37.9 µM [inhibitor, single point]. For `CCn1c(/N=C/c2ccccc2O)nc2ccccc21`, the Potency was inconclusive: 37.9 µM [inhibitor, partial curve, poor fit]. With `Cc1ccc(CCNC(=O)c2cnc3c(C)cccn3c2=O)cc1` the Potency was inconclusive: 15.1 µM [inhibitor, partial curve]. In the case of `Cc1cccc2nc(CSc3nc4ccccc4o3)cn12`, the Potency was active: 15.1 µM. For `O=C(O)c1cc2ccccc2c2cc(Br)ccc12`, the Potency was inconclusive: 37.9 µM [inhibitor, partial curve, poor fit]. In the case of `COc1ccc(NC(=O)CSc2nnc(Cc3cccn3C)n2-c2ccc(C)cc2)cc1OC`, the Potency was “inactive”. For `COc1ccccc1NC(=O)N(Cc1ccccc1)c1ccccn1`, the Potency was inconclusive: 21.3 µM [inhibitor, partial curve, poor fit]. In the case of `Cc1ccc(C(=O)NC(C)C2CC3CCC2C3)c(C)c1` (stereo unspecified), the Potency was inconclusive: 26.9 µM [inhibitor, single point]. For `Clc1ccc(OCCSc2nnnn2C2CCCCC2)cc1`, the Potency was inconclusive: 26.9 µM [inhibitor, single point]. In the case of `CC(=O)c1cccc(NC(=O)CCS(=O)(=O)c2ccc3c(c2)n(C)c(=O)c(=O)n3C)c1`, the Potency was “inactive”. In the case of `O=C1CCCC(O)=C1C=Nc1ccc2c(c1)oc1ccccc12`, the Potency was active: 2.13 µM. With `O=C(Nc1ccccc1C(F)(F)F)C1(S(=O)(=O)c2ccc(Cl)cc2)CC1` the Potency was “inactive”. With `O=C(O/N=C/c1ccc(Cl)cc1)C1CCCCC1` the Potency was active: 2.69 µM. For `CN(C)/C=C1\C(=O)N(c2ccc(Oc3ccccc3)cc2)CS1=O` (stereo unspecified), the Potency was inconclusive: 19 µM [inhibitor, partial curve]. With `COc1ccc(NC(=S)NC(=O)/C=C/c2ccco2)cc1` the Potency was inconclusive: 23.9 µM [inhibitor, partial curve]. With `CCN(CC)c1ccc(/C=N/NC(=S)NC)c(O)c1` the Potency was inconclusive: 19 µM [inhibitor, single point]. In the case of `CNc1cc(N2CCCCCC2)ccc1[N+](=O)[O-]`, the Potency was inconclusive: 30.1 µM [inhibitor, partial curve, poor fit]. In the case of `Cc1cc(SCC(=O)N/N=C/c2ccc(O)c(O)c2)nc2ccccc12`, the Potency was inconclusive: 26.9 µM [inhibitor, partial curve, poor fit]. In the case of `O=C1OCCC1Sc1nnnn1-c1ccc(Cl)cc1` (stereo unspecified), the Potency was active: 10.7 µM. For `Cc1nc2ccc(NC(=O)c3ccc(Cl)nc3)cc2s1`, the Potency was inconclusive: 26.9 µM [inhibitor, partial curve, poor fit]. With `COc1ccc(Cl)cc1C(=O)Nc1ccc2c(c1)OCCO2` the Potency was active: 1.9 µM. `COc1cc(/C=N/Nc2ccc(Cl)c(C(=O)O)c2)ccc1OC(=O)c1ccco1` was tested, and the Potency was inconclusive: 26.9 µM [inhibitor, single point]. `Cc1ccn2c(Nc3ccccc3C)c(-c3ccncc3)nc2c1` was tested, and the Potency was inconclusive: 37.9 µM [inhibitor, partial curve, poor fit]. `O=C(Nc1ccccn1)Nc1cccs1` was tested, and the Potency was inconclusive: 19 µM [inhibitor, partial curve]. For `O=C1c2nc3cc(-c4ccco4)[nH]n3c(=O)c2CN1Cc1ccccc1`, the Potency was inconclusive: 23.9 µM [inhibitor, single point]. With `COc1ccc(/C=N/NC(=O)c2[nH]c3ccc(Cl)cc3c2-c2ccccc2)c(C(=O)O)c1OC` the Potency was inconclusive: 30.1 µM [inhibitor, partial curve, poor fit]. In the case of `Cc1ccccc1Cn1c(-c2cccs2)nc2ccccc21`, the Potency was inconclusive: 19 µM [inhibitor, partial curve]. In the case of `Cc1nn(-c2ccccc2)c(Cl)c1C(=O)NCCCCNC(=O)c1c(C)nn(-c2ccccc2)c1Cl`, the Potency was inconclusive: 12 µM [inhibitor, partial curve]. In the case of `CN(C)C(=O)c1cc(C(=O)c2ccc(F)cc2Cl)c[nH]1`, the Potency was inconclusive: 21.3 µM [inhibitor, single point]. `CC(=O)Nc1ccc(NC(=O)C2CCCN(c3nnc(-n4cccc4)s3)C2)cc1` (stereo unspecified) was tested, and the Potency was inconclusive: 16.9 µM [inhibitor, partial curve]. With `c1csc(-c2ncc3ccccn23)c1` the Potency was inconclusive: 26.9 µM [inhibitor, single point]. For `COc1ccccc1CCNC(=O)Cn1ccc2cc(S(=O)(=O)N3CCCCC3)ccc21`, the Potency was “inactive”. In the case of `COc1ccc(C(=O)Nc2ccc3nc(SCC(=O)N4CCCC4)sc3c2)cc1`, the Potency was inconclusive: 5.36 µM [inhibitor, full curve]. `O=C(CN1CCCCCC1)N/N=C/c1cccc(Cl)c1Cl` was tested, and the Potency was inconclusive: 19 µM [inhibitor, partial curve, poor fit]. With `O=C(Cc1ccc(Cl)cc1)NCCS(=O)(=O)N1CCN(c2ccccc2F)CC1` the Potency was “inactive”. In the case of `Cn1c(=O)c(=O)n(C)c2cc(S(=O)(=O)N3CCCC3C(=O)Nc3cccc(F)c3)ccc21` (stereo unspecified), the Potency was “inactive”. `Cc1ccc(F)c([C@H]2C3C=CCC(c4ccccc4)C3C(=O)N2Cc2ccccc2)c1` (stereo partly specified) was tested, and the Potency was “inactive”. With `CN(C)c1ccc(C(=S)N2CCN(Cc3ccccc3)CC2)cc1` the Potency was inconclusive: 42.6 µM [inhibitor, partial curve, poor fit]. In the case of `CCN(CC)c1ccc(/C=C/c2ccc3ccc(OC)cc3[n+]2CC)cc1`, the Potency was inconclusive: 26.9 µM [inhibitor, partial curve, poor fit]. In the case of `Nc1nonc1-n1nnc(C(=O)N/N=C/c2cccnc2)c1-c1cccs1`, the Potency was inconclusive: 37.9 µM [inhibitor, partial curve, poor fit]. In the case of `Cc1ccc(-n2c(SCC(=O)N3CCc4ccccc43)nc3c([nH]c4ccccc43)c2=O)cc1`, the Potency was “inactive”. For `CC(C)c1nnc(NC(=O)c2cccs2)s1`, the Potency was active: 13.5 µM. With `Cc1ccc(C(=O)Nc2nc(=O)n(C(=O)CC(C)C)s2)cc1` the Potency was inconclusive: 30.1 µM [inhibitor, single point]. `CCC(=O)Nc1cccc(C2=NOC3(C2)C[C@@H](C(N)=O)N(C(=O)CC(c2ccccc2)c2ccccc2)C3)c1` (stereo partly specified) was tested, and the Potency was “inactive”. For `C=CCNC(=O)c1csc(-c2ccccc2)n1`, the Potency was “inactive”. For `CC1CC(=O)Nc2ccccc2N1S(=O)(=O)c1cccc(Cl)c1` (stereo unspecified), the Potency was “inactive”. With `COc1cccc(C2CCCN2Cc2nc(-c3sccc3C)oc2C)c1` (stereo unspecified) the Potency was “inactive”. For `CCN(CC)c1ccc(C=N/C(C#N)=C(\N)C#N)cc1`, the Potency was inconclusive: 21.3 µM [inhibitor, partial curve]. `Cc1ccc(Cl)cc1N1CCN(C(=O)CCS(=O)(=O)c2ccc3c(c2)NC(=O)CO3)CC1` was tested, and the Potency was “inactive”. In the case of `COc1ccccc1C(=O)Nc1cccc(C(=O)OCc2cc(=O)n3c4c(sc3n2)CCCC4)c1`, the Potency was inconclusive: 3.01 µM [inhibitor, full curve]. For `COc1ccc(OC)c(Nc2nc(=O)c3cccnc3s2)c1`, the Potency was active: 16.9 µM. With `COc1ccc(/C=C(/CC(=O)Nc2ccccc2)c2nc3ccccc3s2)cc1` the Potency was active: 21.3 µM. With `Cc1onc(-c2ccccc2Cl)c1C(=O)Oc1ccccc1F` the Potency was “inactive”. In the case of `Cc1nc(NC(=O)c2ccncc2)sc1C(=O)N(C)C`, the Potency was inconclusive: 37.9 µM [inhibitor, single point]. `O=C(Nc1cc(S(=O)(=O)N2CCOCC2)ccc1N1CCCCC1)c1cc(-c2ccccn2)nc2ccccc12` was tested, and the Potency was inconclusive: 37.9 µM [inhibitor, partial curve, poor fit]. In the case of `O=C(COC(=O)c1cnccn1)c1ccc(Cl)cc1`, the Potency was active: 19 µM. `O=C(Nc1ccccc1C(=O)NCc1cccnc1)c1ccc(Cl)cc1Cl` was tested, and the Potency was inconclusive: 30.1 µM [inhibitor, partial curve, poor fit]. With `Cc1ccc(Oc2ccc(C(F)(F)F)cc2[N+](=O)[O-])c([N+](=O)[O-])n1` the Potency was inconclusive: 30.1 µM [inhibitor, single point]. `Cc1csc2sc(-c3ccnc(SCC(=O)NCc4ccccc4)n3)c(C)c12` was tested, and the Potency was inconclusive: 21.3 µM [inhibitor, single point]. In the case of `COc1ccc(-c2cc(C(=O)O)no2)cc1`, the Potency was “inactive”. With `Cc1cc(=O)n(Cc2c(F)cccc2Cl)c2c1c(C)nn2-c1cccc(F)c1` the Potency was “inactive”. For `O=C(/C=C/c1ccc(Cl)cc1Cl)Nc1ccc(CN2CCOCC2)cc1`, the Potency was active: 7.57 µM. `COc1cc([N+](=O)[O-])c(C(=O)N2CCOCC2)c([N+](=O)[O-])c1` was tested, and the Potency was “inactive”. With `Cc1ccc(C(=O)Nc2cc3ccccc3oc2=O)cc1` the Potency was active: 0.0757 µM. With `CCOc1ccc(NC(=O)c2ccc(CSc3nnc(C)s3)cc2)cc1` the Potency was inconclusive: 4.26 µM [inhibitor, partial curve, poor fit]. For `S=c1[nH]nc(-c2cccnc2)n1/N=C/C=C/c1ccccc1`, the Potency was inconclusive: 26.9 µM [inhibitor, partial curve, poor fit]. In the case of `Cc1ccc2cc(CN(CC3CCCO3)S(=O)(=O)c3c(C)ccc4nsnc34)c(=O)[nH]c2c1` (stereo unspecified), the Potency was “inactive”. In the case of `COCc1cc(C)nc2sc3c(c12)NC(c1ccccc1C(=O)O)N(c1cccc(C(F)(F)F)c1)C3=O` (stereo unspecified), the Potency was inconclusive: 15.1 µM [inhibitor, partial curve]. With `O=C(CSc1nnc2[nH]c(=O)cc(-c3ccccc3)n12)Nc1ccc(OC(F)(F)F)cc1` the Potency was active: 2.39 µM.
Note: nearly all actives have a fitted effect of over 55% in size.
Potency is the fitted concentration of half-maximal effect; tags give direction and shape of the fitted curve.
